This note sets out measurements from ChEMBL document CHEMBL4888484, “Replenishing the malaria drug discovery pipeline: Screening and hit evaluation of the MMV Hit Generation Library 1 (HGL1) against asexual blood stage Plasmodium falciparum ,using a nano luciferase reporter read-out” (2022).

About 540 (0.36%) of roughly 150,000 compounds showed an effect of 50% or more. This is one part of the list.

The assay concerns Plasmodium falciparum. Description: Primary screen in NF54 nanoGlo assay, in single point, at 2uM, 72h; a lower Z score goes with more inhibition. In kind it is functional, Erythrocyte. The settings on record: timepoint 72 hour.
With `NC(=O)c1ccccc1NCc1cc(Cl)cc2c1OCOC2`, the “% Inhibition” value is reported as -8% and the Z score is 0.73.
As for `Cc1cc2c(=O)n(CC(=O)N3CCN(c4ncccn4)CC3)cnc2cc1F`, the “% Inhibition” value is given as -1% and the Z score amounted to 0.09.
`Cn1c(=O)c2c(nc(N3CCOCC3)n2C[C@H](O)c2ccccc2)n(C)c1=O`: the “% Inhibition” value was -11% and the Z score was found to be 1.48.
Regarding `O=S(=O)(c1cccnc1)N1CCn2nc(C3CC3)cc2C1`, the “% Inhibition” value is -6% and the Z score turned out to be 0.66.
Regarding `COc1ccc(C(C)CN2CCOC(C3CCCO3)C2)cc1` (centres undefined), the “% Inhibition” value is given as -9% and the Z score worked out at 0.95.
For the compound `O=C(N[C@@H](N1CCOCC1)C(Cl)(Cl)Cl)c1cccnc1`, the “% Inhibition” value is 0% and the Z score was determined as 0.02.
`CCn1cnnc1CCNC(=O)CCc1scnc1C`: the “% Inhibition” value is recorded as -8% and the Z score was 1.61.
`Cc1nc(-c2cccc(NC(=O)CCc3ccc(S(=O)(=O)N4CCCC4)cc3)c2)cs1`: the “% Inhibition” value is -29% and the Z score came out at 3.35.
The like results for `COc1ccc(S(=O)(=O)CCNC(=O)c2ccc(Nc3ncccn3)cc2)cc1` were, in that order, -11% and 1.3.
Take `CN(Cc1cccs1)C(=O)Cc1cn(-c2ccccc2)nc1-c1ccc(Cl)cc1`: the “% Inhibition” value is given as -2% and the Z score came out at 0.24.
In the case of `Cc1nn([C@@H](C)CCNS(=O)(=O)c2cnn(C(F)F)c2)c(C)c1Cl`, the “% Inhibition” value is -10% and the Z score is 1.26.
As to `CCNC(=O)[C@@H]1CC[C@](C)(C(=O)NCc2c[nH]c(=O)[nH]c2=O)C1(C)C`, the “% Inhibition” value is reported as -11% and the Z score was found to be 1.22.
Regarding `CC(C)N(C)Cc1ccccc1CN[C@@H](C)c1ccc2c(c1)OCCCO2`, the “% Inhibition” value is on record as -1% and the Z score is 0.15.
With `O=S(=O)(NCc1ccccc1)Nc1ccc2cn[nH]c2c1`, the “% Inhibition” value is listed as -9% and the Z score amounted to 1.1.
The like results for `CC(C)CCC(=O)N1CCC[C@H](NS(C)(=O)=O)C1` were, in that order, -19% and 1.96.
Take `NS(=O)(=O)c1sc(Cl)cc1C(=O)N1CC(COc2ccccc2)C1`: the “% Inhibition” value came to 0% and the Z score stood at 0.01.
In the case of `Cc1nnc(CN2CC[C@H](c3cccc(Oc4ccccc4)c3)C2)o1`, the “% Inhibition” value is -8% and the Z score is reported as 0.69.
Regarding `O=C(CCc1cc(Cl)cs1)NO[C@@H]1CCCCO1`, the “% Inhibition” value is -15% and the Z score worked out at 1.24.
Regarding `COCCC1(C(=O)NCc2csc(-c3ccn(C)n3)n2)CCCC1`, the “% Inhibition” value is -4% and the Z score was 0.78.
Take `Cn1nc(C2CC2)cc1N1CCN(C(=O)c2ccc3nsnc3c2)CC1`: the “% Inhibition” value is on record as 8% and the Z score is -1.01.
The matching figures for `CC(=O)N[C@H]1[C@H](c2ccccc2)NCC[C@@]1(C)O`: 0% and -0.05.
On to `COc1ccc(OCc2cc(C(=O)NC[C@H]3CCOC3)n[nH]2)c(Cl)c1`, for which the “% Inhibition” value was -5% and the Z score is on record as 0.96.
The matching figures for `Clc1ccccc1CNc1nn2cnnc2c2ccccc12`: -3% and 0.36.
Consider `CCOC(=O)c1nc(NCCN(Cc2ccccc2)C(C)C)c2c(C)noc2n1`, for which the “% Inhibition” value is 8% and the Z score is listed as -1.58.
In the case of `Cc1csc(NC(=O)CCOCC(C)C)n1`, the “% Inhibition” value is on record as -3% and the Z score was 0.48.
The like results for `Cc1cccc(=O)n1CCCNC(=O)c1nc(C(C)C)cs1` were, in that order, -13% and 2.44.
Regarding `O=S(=O)(C1COC1)N1CCN(c2cc(C3CC3)n[nH]2)CC1`, the “% Inhibition” value is -4% and the Z score is 0.67.
Turning to `Cc1cc(Nc2ccc(C)c(F)c2)n2nc(-c3ccco3)nc2n1`, the “% Inhibition” value is -2% and the Z score is recorded as 0.38.
For the compound `CCc1cc(C(=O)N2CCOCC2)c2c(C3CC3)nn(-c3ccccc3F)c2n1`, the “% Inhibition” value was 27% and the Z score is -3.7.
For the compound `Cc1nc([C@H](C)NC(=O)c2cc(Cn3cnc4ccccc43)[nH]n2)n[nH]1`, the “% Inhibition” value was -2% and the Z score came to 0.28.
`CCc1nocc1CN(C)S(=O)(=O)c1cc(Cl)c(C)c(C(=O)O)c1`: the “% Inhibition” value was 11% and the Z score was -1.68.
Take `O=C(Cn1nc2c3ccc(F)cc3ncn2c1=O)Nc1ccc2c(c1)OCO2`: the “% Inhibition” value is reported as -5% and the Z score amounted to 0.85.
For the compound `COC[C@H](C)n1c(CCCC(=O)N2CCc3n[nH]cc3C2)nc2cccnc21`, the “% Inhibition” value is recorded as -4% and the Z score was 0.68.
In the case of `Cc1noc(C)c1CN1CC2(CCCCC2)C[C@@H]1COc1ccncc1`, the “% Inhibition” value is -13% and the Z score is reported as 2.21.
In the case of `Cc1nccn1-c1ccccc1Cn1cc([C@H]2CCOC2)nn1`, the “% Inhibition” value was -16% and the Z score is listed as 1.76.
Consider `CCc1nn2c(c1-c1ccc(C)cc1)NC(=O)[C@@H]2CC(=O)O`, for which the “% Inhibition” value amounted to 32% and the Z score is -3.64.
`CCN(CC)c1ccc(NC(=O)CCc2nnc3ccc(N4CCCCC4)nn23)c(C)c1`: the “% Inhibition” value stood at 6% and the Z score is reported as -1.
The like results for `CCC(C)(C)NC(=O)Cn1c(=O)c2nnc(C)n2c2ncccc21` were, in that order, -6% and 0.77.
For `O=C(NCc1nc2c(F)c(F)ccc2[nH]1)OCC1CC1`, the “% Inhibition” value was -3% and the Z score worked out at 0.43.
As to `CC[C@H]1C(=O)NCCCN1C(=O)c1cc(C)nc2cc(C)nn12`, the “% Inhibition” value is listed as -17% and the Z score stood at 2.38.
On to `O=C1CCC(=O)N1C1CN(S(=O)(=O)C2CCCCC2)C1`, for which the “% Inhibition” value is on record as -3% and the Z score is reported as 0.51.
Turning to `O=C(Nc1ncc(C(O)(C(F)(F)F)C(F)(F)F)s1)c1ccccc1Cl`, the “% Inhibition” value is -1% and the Z score is 0.19.

As a reminder, the % Inhibition is the drop in the measured response relative to a control, in per cent.
